# The list shows a part of the results.
# B1: SpnanA (Streptococcus pneumoniae), P62575 (protein)
# chain: MVIEKEDVETNASNGQRVDLSSELDKLKKLENATVHMEFKPDAKAPAFYNLFSVSSATKKDEYFTMAVYNNTATLEGRGSDGKQFYNNYNDAPLKVKPGQWNSVTFTVEKPTAELPKGRVRLYVNGVLSRTSLRSGNFIKDMPDVTHVQIGATKRANNTVWGSNLQIRNLTVYNRALTPEEVQKRS
# Columns and labels:
# Test in all cases: glycan array binding signal (z-score within array); higher = stronger binding
# Details in all cases: glycan notation: IUPAC condensed, linker removed
# Fuc(a1-2)Gal6S(b1-4)Glc = target: Fuc(a1-2)Gal6S(b1-4)Glc
# How it was run: (§1)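 Columns mapping to the same glycan were averaged after glycan names were converted to IUPAC-condensed notation. The data come from 3228 arrays in the Consortium for Functional Glycomics database, limited to those with an available protein sequence. Binding is reported as a within-array Z-score averaged across arrays of one protein sequence and across linkers.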
# [1] = target: Fuc(a1-2)Gal6S(b1-4)Glc6S
# How it was run: as §1
# [2] = target: Fuc(a1-2)Gal6S(b1-4)GlcNAc
# How it was run: as §1
# Fuc(a1-2)[Gal(a1-3)]Gal = target: Fuc(a1-2)[Gal(a1-3)]Gal
# How it was run: as §1
# [3] = target: Fuc(a1-2)[Gal(a1-3)]Gal(b1-3)GalNAc
# How it was run: as §1
# [4] = target: Fuc(a1-2)[Gal(a1-3)]Gal(b1-3)GlcNAc
# How it was run: as §1
# [5] = target: Fuc(a1-2)[Gal(a1-3)]Gal(b1-3)GlcNAc(b1-2)Man(a1-3)[Fuc(a1-2)[Gal(a1-3)]Gal(b1-3)GlcNAc(b1-2)Man(a1-6)]Man(b1-4)GlcNAc(b1-4)GlcNAc
# How it was run: as §1
# [6] = target: Fuc(a1-2)[Gal(a1-3)]Gal(b1-3)GlcNAc(b1-2)Man(a1-3)[Fuc(a1-2)[Gal(a1-3)]Gal(b1-3)GlcNAc(b1-2)Man(a1-6)]Man(b1-4)GlcNAc(b1-4)[Fuc(a1-6)]GlcNAc
# How it was run: as §1
# [7] = target: Fuc(a1-2)[Gal(a1-3)]Gal(b1-3)GlcNAc(b1-3)GalNAc
# How it was run: as §1
# [8] = target: Fuc(a1-2)[Gal(a1-3)]Gal(b1-4)Glc
# How it was run: as §1
# [9] = target: Fuc(a1-2)[Gal(a1-3)]Gal(b1-4)GlcNAc
# How it was run: as §1
# [10] = target: Fuc(a1-2)[Gal(a1-3)]Gal(b1-4)GlcNAc(b1-2)Man(a1-3)[Fuc(a1-2)[Gal(a1-3)]Gal(b1-4)GlcNAc(b1-2)Man(a1-6)]Man(b1-4)GlcNAc(b1-4)GlcNAc
# How it was run: as §1
# [11] = target: Fuc(a1-2)[Gal(a1-3)]Gal(b1-4)GlcNAc(b1-2)Man(a1-3)[Fuc(a1-2)[Gal(a1-3)]Gal(b1-4)GlcNAc(b1-2)Man(a1-6)]Man(b1-4)GlcNAc(b1-4)[Fuc(a1-6)]GlcNAc
# How it was run: as §1
# [12] = target: Fuc(a1-2)[Gal(a1-3)]Gal(b1-4)GlcNAc(b1-3)GalNAc
# How it was run: as §1
# [13] = target: Fuc(a1-2)[Gal(a1-3)]Gal(b1-4)GlcNAc(b1-6)GalNAc
# How it was run: as §1
# [14] = target: Fuc(a1-2)[Gal(a1-3)]Gal(b1-4)[Fuc(a1-3)]Glc
# How it was run: as §1
# [15] = target: Fuc(a1-2)[Gal(a1-3)]Gal(b1-4)[Fuc(a1-3)]GlcNAc
# How it was run: as §1
# [16] = target: Fuc(a1-2)[Gal(a1-3)]Gal(b1-4)[Fuc(a1-3)]GlcNAc(b1-3)GalNAc
# How it was run: as §1
# [17] = target: Fuc(a1-2)[Gal(a1-4)]Gal(b1-4)GlcNAc
# How it was run: as §1
# [18] = target: Fuc(a1-2)[GalNAc(a1-3)]Gal
# How it was run: as §1
# [19] = target: Fuc(a1-2)[GalNAc(a1-3)]Gal(b1-3)GalNAc(a1-3)[Fuc(a1-2)]Gal(b1-4)GlcNAc
# How it was run: as §1
# [20] = target: Fuc(a1-2)[GalNAc(a1-3)]Gal(b1-3)GlcNAc
# How it was run: as §1
# [21] = target: Fuc(a1-2)[GalNAc(a1-3)]Gal(b1-3)GlcNAc(b1-2)Man(a1-3)[Fuc(a1-2)[GalNAc(a1-3)]Gal(b1-3)GlcNAc(b1-2)Man(a1-6)]Man(b1-4)GlcNAc(b1-4)GlcNAc
# How it was run: as §1
# [22] = target: Fuc(a1-2)[GalNAc(a1-3)]Gal(b1-3)GlcNAc(b1-2)Man(a1-3)[Fuc(a1-2)[GalNAc(a1-3)]Gal(b1-3)GlcNAc(b1-2)Man(a1-6)]Man(b1-4)GlcNAc(b1-4)[Fuc(a1-6)]GlcNAc
# How it was run: as §1
# [23] = target: Fuc(a1-2)[GalNAc(a1-3)]Gal(b1-3)GlcNAc(b1-3)GalNAc
# How it was run: as §1
# [24] = target: Fuc(a1-2)[GalNAc(a1-3)]Gal(b1-3)GlcNAc(b1-6)GalNAc
# How it was run: as §1
# [25] = target: Fuc(a1-2)[GalNAc(a1-3)]Gal(b1-4)Glc
# How it was run: as §1
# [26] = target: Fuc(a1-2)[GalNAc(a1-3)]Gal(b1-4)GlcNAc
# How it was run: as §1
# [27] = target: Fuc(a1-2)[GalNAc(a1-3)]Gal(b1-4)GlcNAc(b1-2)Man(a1-3)[Fuc(a1-2)[GalNAc(a1-3)]Gal(b1-4)GlcNAc(b1-2)Man(a1-6)]Man(b1-4)GlcNAc(b1-4)GlcNAc
# How it was run: as §1
# [28] = target: Fuc(a1-2)[GalNAc(a1-3)]Gal(b1-4)GlcNAc(b1-2)Man(a1-3)[Fuc(a1-2)[GalNAc(a1-3)]Gal(b1-4)GlcNAc(b1-2)Man(a1-6)]Man(b1-4)GlcNAc(b1-4)[Fuc(a1-6)]GlcNAc
# How it was run: as §1
# [29] = target: Fuc(a1-2)[GalNAc(a1-3)]Gal(b1-4)GlcNAc(b1-3)Gal(b1-4)GlcNAc
# How it was run: as §1
# [30] = target: Fuc(a1-2)[GalNAc(a1-3)]Gal(b1-4)GlcNAc(b1-3)Gal(b1-4)GlcNAc(b1-3)Gal(b1-4)GlcNAc
# How it was run: as §1
# [31] = target: Fuc(a1-2)[GalNAc(a1-3)]Gal(b1-4)GlcNAc(b1-3)GalNAc
# How it was run: as §1
# [32] = target: Fuc(a1-2)[GalNAc(a1-3)]Gal(b1-4)[Fuc(a1-3)]GlcNAc
# How it was run: as §1
# [33] = target: Fuc(a1-2)[GalNAc(a1-3)]Gal(b1-4)[Fuc(a1-3)]GlcNAc(b1-3)GalNAc
# How it was run: as §1
# [34] = target: Fuc(a1-2)[GalNAc(a1-4)]Gal(b1-4)GlcNAc
# How it was run: as §1
# [35] = target: Fuc(a1-2)[GalNAc(b1-3)]Gal
# How it was run: as §1
# Fuc(a1-3)GlcNAc = target: Fuc(a1-3)GlcNAc
# How it was run: as §1
# [36] = target: Fuc(a1-3)[Gal(b1-4)]Glc6S
# How it was run: as §1
# [37] = target: Fuc(a1-3)[Gal(b1-4)]GlcNAc
# How it was run: as §1
# [38] = target: Fuc(a1-3)[Gal(b1-4)]GlcNAc(b1-2)Man
# How it was run: as §1
# [39] = target: Fuc(a1-3)[Gal(b1-4)]GlcNAc(b1-2)Man(a1-3)[Fuc(a1-3)[Gal(b1-4)]GlcNAc(b1-2)Man(a1-6)]Man(b1-4)GlcNAc(b1-4)GlcNAc
# How it was run: as §1
# [40] = target: Fuc(a1-3)[Gal(b1-4)]GlcNAc(b1-2)Man(a1-3)[Fuc(a1-3)[Gal(b1-4)]GlcNAc(b1-2)Man(a1-6)]Man(b1-4)GlcNAc(b1-4)[Fuc(a1-6)]GlcNAc
# How it was run: as §1
# [41] = target: Fuc(a1-3)[Gal(b1-4)]GlcNAc(b1-3)Gal(b1-3)[Fuc(a1-4)]GlcNAc
# How it was run: as §1
# [42] = target: Fuc(a1-3)[Gal(b1-4)]GlcNAc(b1-3)GalNAc
# How it was run: as §1
binder,measurement,setting,value
B1,glycan array binding signal (z-score),Fuc(a1-2)Gal6S(b1-4)Glc,-0.212
same,glycan array binding signal (z-score),[1],-0.121
same,glycan array binding signal (z-score),[2],-0.317
same,glycan array binding signal (z-score),Fuc(a1-2)[Gal(a1-3)]Gal,-0.222
same,glycan array binding signal (z-score),[3],-0.322
same,glycan array binding signal (z-score),[4],-0.262
same,glycan array binding signal (z-score),[5],-0.216
same,glycan array binding signal (z-score),[6],-0.328
same,glycan array binding signal (z-score),[7],-0.21
same,glycan array binding signal (z-score),[8],-0.273
same,glycan array binding signal (z-score),[9],-0.187
same,glycan array binding signal (z-score),[10],-0.198
same,glycan array binding signal (z-score),[11],-0.314
same,glycan array binding signal (z-score),[12],-0.355
same,glycan array binding signal (z-score),[13],-0.044
same,glycan array binding signal (z-score),[14],-0.264
same,glycan array binding signal (z-score),[15],-0.275
same,glycan array binding signal (z-score),[16],-0.047
same,glycan array binding signal (z-score),[17],-0.249
same,glycan array binding signal (z-score),[18],-0.21
same,glycan array binding signal (z-score),[19],-0.12
same,glycan array binding signal (z-score),[20],-0.265
same,glycan array binding signal (z-score),[21],-0.292
same,glycan array binding signal (z-score),[22],-0.289
same,glycan array binding signal (z-score),[23],-0.044
same,glycan array binding signal (z-score),[24],-0.265
same,glycan array binding signal (z-score),[25],-0.263
same,glycan array binding signal (z-score),[26],-0.134
same,glycan array binding signal (z-score),[27],-0.211
same,glycan array binding signal (z-score),[28],-0.31
same,glycan array binding signal (z-score),[29],-0.247
same,glycan array binding signal (z-score),[30],-0.165
same,glycan array binding signal (z-score),[31],-0.259
same,glycan array binding signal (z-score),[32],0.018
same,glycan array binding signal (z-score),[33],0.218
same,glycan array binding signal (z-score),[34],-0.162
same,glycan array binding signal (z-score),[35],-0.274
same,glycan array binding signal (z-score),Fuc(a1-3)GlcNAc,-0.176
same,glycan array binding signal (z-score),[36],-0.264
same,glycan array binding signal (z-score),[37],-0.28
same,glycan array binding signal (z-score),[38],-0.244
same,glycan array binding signal (z-score),[39],-0.169
same,glycan array binding signal (z-score),[40],-0.083
same,glycan array binding signal (z-score),[41],-0.263
same,glycan array binding signal (z-score),[42],-0.153
